Test results: PMC4336329 (PLoS ONE, 2015)
Among all 310,000 compounds or so, about 14,000 (4.5%) showed an effect of 50% or more. Effects have a minus sign here. Some of the results follow.

Target: human ether-à-go-go-related gene (hERG) potassium channel (human, UniProt Q12809)
Assay: primary screen, population patch clamp on CHO cells stably expressing hERG
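Note: peak tail current of the secondary pulse compared with the same well before compound.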

Chain of human ether-à-go-go-related gene (hERG) potassium channel (Q12809 whole entry, looked up): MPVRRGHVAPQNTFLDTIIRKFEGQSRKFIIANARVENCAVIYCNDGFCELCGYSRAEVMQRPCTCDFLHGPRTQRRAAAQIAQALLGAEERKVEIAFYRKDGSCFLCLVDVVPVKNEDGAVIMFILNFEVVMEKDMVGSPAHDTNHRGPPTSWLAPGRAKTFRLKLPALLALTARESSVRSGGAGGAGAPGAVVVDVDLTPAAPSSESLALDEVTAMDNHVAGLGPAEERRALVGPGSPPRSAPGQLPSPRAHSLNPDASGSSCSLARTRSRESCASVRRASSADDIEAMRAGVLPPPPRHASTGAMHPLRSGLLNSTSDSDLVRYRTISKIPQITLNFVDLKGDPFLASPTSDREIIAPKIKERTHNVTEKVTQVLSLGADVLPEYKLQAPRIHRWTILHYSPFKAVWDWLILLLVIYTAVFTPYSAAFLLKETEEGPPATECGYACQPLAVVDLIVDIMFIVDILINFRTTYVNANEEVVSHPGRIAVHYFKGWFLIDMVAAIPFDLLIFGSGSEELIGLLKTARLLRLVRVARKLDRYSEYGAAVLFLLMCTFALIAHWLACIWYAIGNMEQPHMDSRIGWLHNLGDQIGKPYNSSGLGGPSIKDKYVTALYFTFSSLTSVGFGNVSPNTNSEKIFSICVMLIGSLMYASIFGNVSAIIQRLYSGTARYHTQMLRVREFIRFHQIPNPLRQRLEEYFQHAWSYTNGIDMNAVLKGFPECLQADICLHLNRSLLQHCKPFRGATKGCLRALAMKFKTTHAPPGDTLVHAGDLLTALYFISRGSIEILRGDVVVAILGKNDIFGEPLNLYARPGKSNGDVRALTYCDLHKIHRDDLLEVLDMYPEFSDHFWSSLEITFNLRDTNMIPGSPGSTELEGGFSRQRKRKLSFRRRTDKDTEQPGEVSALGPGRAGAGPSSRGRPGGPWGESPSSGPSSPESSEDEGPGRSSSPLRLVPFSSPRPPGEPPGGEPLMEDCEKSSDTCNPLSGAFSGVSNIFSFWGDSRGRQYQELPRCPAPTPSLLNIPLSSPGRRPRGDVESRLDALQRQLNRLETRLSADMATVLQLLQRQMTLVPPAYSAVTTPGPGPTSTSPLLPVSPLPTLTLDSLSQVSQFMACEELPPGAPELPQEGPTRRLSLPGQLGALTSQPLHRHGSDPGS

Row | Compound | hERG current change (%, negative = inhibition) at 10uM [%]
1 | CNS(=O)(=O)c1cccc(C(=O)OCCCOC(=O)c2cccc(S(=O)(=O)NC)c2)c1 | 7.27
2 | Cc1ccc2[nH]c(C)c(CC(=O)NCc3ccccc3)c2c1 | 9.6
3 | CCOc1ccc2nc(NC(=O)CSc3nc4ccccc4c(=O)n3Cc3ccco3)sc2c1 | -2.58
4 | CCc1ccc(OC(=O)CN2C(=O)c3ccccc3C2=O)cc1 | 20.4
5 | CC(=O)NNC(=O)c1cc2c3ccccc3n(C)c2s1 | 16.6
6 | O=C(NCc1cn2ccccc2n1)c1ccccc1 | 11.3
7 | CCOC(=O)N1CCN(S(=O)(=O)c2c[nH]c(C(=O)OC)c2)CC1 | 12
8 | CC(C)(C)c1ccc(C(=O)NCCC(=O)N2CCN(c3ncccn3)CC2)cc1 | -13.4
9 | Cc1ccc(OCc2cccc(S(=O)(=O)N(C)C)c2)c([N+](=O)[O-])n1 | 7.68
10 | CC(C)C1N(C(=O)N(C)C)CCN1S(=O)(=O)c1ccccc1 (stereo not drawn) | 15.2
11 | CC(C)(C)N1OC2CC1c1nc3ccccc3n1C2 (stereo not drawn) | 21.6
12 | O=S(=O)(NC1=NCCCCC1)c1ccc2sc(NS(=O)(=O)c3ccc4ccccc4c3)nc2c1 | 9.13
13 | Cc1cc(NCCN(C)C)n2nc(-c3cccs3)cc2n1 | -34.8
14 | Cc1nc2ccccc2n1/N=C/c1ccc([N+](=O)[O-])o1 | -58.9
15 | COc1ccccc1OCCCOc1cccc(/C=C2\SC(=O)NC2=O)c1 | 19.5
16 | Cc1cccc(NC(=O)/C(=C/c2cccc([N+](=O)[O-])c2)NC(=O)c2cccs2)c1 | 10.2
17 | Cc1ccc2nc(SCC(=O)NCCCN3CCCC3=O)[nH]c2c1 | 0.804
18 | CC(C)(C)C(=O)C[n+]1cccc(C(N)=O)c1.[Br-] | 21
19 | C=CCOc1c(Br)cc(CNn2nnnc2N)cc1OCC | -4.18
20 | COc1cccc(CNC(=O)CCC2CCCN(C(=O)c3cc(C)on3)C2)c1 (stereo not drawn) | 5.3
21 | COc1ccc(OC)c(-n2c(O)c(/C=C3\C(C)=Nc4ccccc43)c(=O)[nH]c2=O)c1 | 15.1
22 | COC(=O)c1c(-c2ccccc2)csc1NC(=O)c1ccco1 | 1.88

Row | Compound | hERG current change (%, negative = inhibition) at 10uM [%]
23 | O=C(C1CCCO1)N1CCN(S(=O)(=O)c2ccccc2)CC1 (stereo not drawn) | 13.7
24 | CC(C)N1OC2CC1c1nc3ccccc3n1C2 (stereo not drawn) | 15.2
25 | COc1cccc(/C=C/C(=O)c2ccc(C)c([N+](=O)[O-])c2)c1 | -3.1
26 | CN(C)CCN(C(=O)c1ccc2ccccc2c1)c1nc2c(F)cccc2s1.Cl | -10.2
27 | O=C(CCCSc1ccccc1)Nc1nc(-c2ccccn2)cs1 | 0.382
28 | O=C(c1cc2ccccc2c(=O)o1)N1CCCC1 | 10.7
29 | Cc1ccc(C(=O)CSc2nc(N)cc(=O)[nH]2)cc1 | 2.68
30 | COc1ccc(/C=C/C(=O)Nc2ccccc2)cc1OC | -3.62
31 | O=C1CN(C(=O)COc2ccc(F)cc2Cl)c2ccccc2N1 | -19.5
32 | O=C(CNC(=O)c1ccccc1F)NCc1cccnc1 | 25.1
33 | COc1cc2[nH]c3c(=O)n(CCN(C(C)C)C(C)C)cnc3c2cc1OC | -13.3
34 | COC(=O)c1ccc(C(=O)N(Cc2ccccc2)c2ccccc2)cc1 | 5.54
35 | Cc1onc(-c2ccccc2Cl)c1C(=O)NCc1ccc2c(c1)cc(C)n2C | 7.32
36 | CN(C)c1nc(N)nc(CSc2nc3c(c(=O)n(C)c(=O)n3C)n2Cc2ccccc2F)n1 | -3.89
37 | CCOC(=O)c1ccccc1OCc1cc(/C=N/n2cncn2)ccc1OC | -1.16
38 | Cc1ccc(NC(=O)C2CCCN2S(=O)(=O)c2cccc3cccnc23)cc1F (stereo not drawn) | -23.4
39 | COc1ccc(N(C(=O)c2ccncc2)S(=O)(=O)c2ccccc2)cc1 | -17.3
40 | COc1ccc(OC)c(CNC(=O)COc2cc(=O)n(C)c3ccccc23)c1 | 4.7
41 | CCCCCN1C(=O)Cn2c(nc3ccccc3c2=O)C1C (stereo not drawn) | -20.5
42 | CCN(CC)c1ccc(NC(=O)c2cc3c(OC)cccc3[nH]2)cc1 | 8.54
43 | COc1cc2c(cc1OC)CN(CC(=O)Nc1ccccc1C(=O)NCc1ccccc1)CC2 | -22.5
44 | CC(CN1CCN(C)CC1)OC(=O)c1cccc(F)c1.Cl (stereo not drawn) | 4.26

Row | Compound | hERG current change (%, negative = inhibition) at 10uM [%]
45 | CNC(=S)N1CCN(c2nc(-c3ccc(F)cc3)cs2)CC1 | 12.8
46 | O=C1c2ccccc2S(=O)(=O)c2cc(N3CCN(c4ccccc4)CC3)ccc21 | 10.8
47 | O=C(COC(=O)C1CCC(=O)N1)Nc1ccc(Cl)cc1Cl (stereo not drawn) | 8.01
48 | CCC(NC(=O)NNC(=O)c1ccncc1)(C(F)(F)F)C(F)(F)F | 1.98
49 | O=C(c1cn(-c2ccccc2)nc1-c1cccnc1)N1CCN(S(=O)(=O)c2cccc(F)c2)CC1 | -13.6
50 | CCCN(CC(=O)Nc1ccc(F)c(F)c1F)CC(=O)Nc1c(Cl)cccc1Cl | -14.3
51 | CC(C)(C)C(=O)NC1(C(F)(F)F)NC(=O)N(Cc2ccccc2)C1=O (stereo not drawn) | 18.4
52 | O=C(CN(Cc1ccc(F)cc1)C(=O)CCC(=O)Nc1ccccn1)NCCc1ccccc1 | -15.7
53 | CCOc1ccc(C(=O)N2CCC3(CC2)NCCc2[nH]cnc23)cc1 | -70.1
54 | Cc1cc(C(=O)CN2C(=O)NC(c3ccccc3)(c3ccccc3)C2=O)c(C)n1Cc1ccco1 | 2.91
55 | O=[N+]([O-])c1ccc(/C=N/n2c(COc3ccccc3)n[nH]c2=S)cc1 | 3.84
56 | CCCCC(=O)O | 15.2
57 | Br.CCCCn1c(=N)n(CC(=O)O)c2ccccc21 | 22.4
58 | C/C(=N\NC(=O)c1ccccc1O)c1c(O)n(C2CCCCC2)c(=O)[nH]c1=O | 15.5
59 | Cc1ccc(C(=O)N2CCC(n3nccc3NC(=O)C3CCOC3)CC2)cc1 (stereo not drawn) | 10.7
60 | CCN1C(=O)c2ccccc2Sc2ccc(C(=O)NCCC(C)C)cc21 | -7.94
61 | Cc1nnc(SC/C=C/c2ccccc2)n(N)c1=O | -1.15
62 | CN(C)c1cccc2c1c(NC(=O)c1ccc(F)cc1)nn2C | -13.5
63 | Oc1cccc(/C=N/Nc2cc(N3CCOCC3)nc(N3CCOCC3)n2)c1 | -27.8
64 | O=C(O)CC1COc2ccccc2N1S(=O)(=O)c1ccc(Br)cc1 (stereo not drawn) | 11.1
65 | CC(C)CSC1=NSC2=NC(=O)/C(=C\c3ccccc3)C(=N)N12 | 21.1
66 | COc1cccc(CN2CCNC(=O)C2CC(=O)NCc2cn3cccc(C)c3n2)c1OC (stereo not drawn) | 17.1

Row | Compound | hERG current change (%, negative = inhibition) at 10uM [%]
67 | CC(C)NC(=O)c1onc(CSc2ccc(Cl)cc2)c1C(=O)O | 8.78
68 | Cc1cc(C)cc(OCC(=O)Nc2ccccc2C(=O)NCc2ccco2)c1 | 0.803
69 | Cn1c(=O)c(=O)n(C)c2cc(S(=O)(=O)N3CCCC3C(=O)NCc3ccco3)ccc21 (stereo not drawn) | 10.4
70 | CCOC(=O)c1nn(-c2ccc(C)c(C)c2)cc1O | 2.44
71 | Cn1c(=S)[nH]c(=O)c2ncc(=O)[nH]c21 | 6.35
72 | Cc1ccc(SCC(=O)NC2CC2)cc1 | 13.3
73 | Cc1ccc(NC(=O)C2CCCN2S(=O)(=O)c2ccc3c(c2)CCC(=O)N3)cc1Cl (stereo not drawn) | -37.3
74 | Nc1c(C(=O)NCc2ccco2)c2nc3ccccc3nc2n1CCN1CCOCC1 | -4.63
75 | CCOC(=O)N1CCN(Cc2nc3c(c(=O)n(C)c(=O)n3C)n2Cc2ccccc2C)CC1 | -11.3
76 | CC(=O)c1ccc(C(=O)N(C)C2CCCN(Cc3ccccc3F)C2)s1 (stereo not drawn) | -19.9
77 | Cc1nc2ccc(C(=O)OCc3ccccc3Br)cc2nc1C | 2.3
78 | COc1ccc(CNC(=O)[C@H](Cc2ccccc2)NC(=O)C2CCN(C(=O)[C@H](C)N)CC2)cc1 | -2.78
79 | COc1ccc(C(C(=O)NC(C)(C)C)N(C(=O)CCC(=O)Nc2cc(C)on2)c2ccccc2F)cc1 (stereo not drawn) | 11.9
80 | C#CCOc1cc(C2C3=C(COC3=O)Nc3cc4c(cc32)OCO4)ccc1OC (stereo not drawn) | 3.21
81 | Cc1c(NC(=O)/C(C#N)=C/c2ccc(-c3cccc(Cl)c3)o2)c(=O)n(-c2ccccc2)n1C | -24.5
82 | Cc1cc(CSc2ccccc2)ccc1NC(=O)COc1ccccc1C | 6.53
83 | Cc1c(O)c(S(=O)c2ccccc2)c(=O)n(-c2ccccc2)c1-c1ccccc1 (stereo not drawn) | -4.73
84 | CC(=O)c1cccc(NC2c3ccccc3C(=O)N2Cc2ccc3c(c2)OCO3)c1 (stereo not drawn) | -11.4
85 | Br.CCCCCCCCOC(=O)c1c(CSC(=N)N)n(C)c2cc(Br)c(OC(C)=O)cc12 | -22.8
86 | O=C(COc1ccccc1)Nc1cccc(-c2nnc(-c3ccccc3)o2)c1 | -0.811
87 | O=C(N/N=C\c1ccccn1)C1COc2cc3ccccc3cc2O1 (stereo not drawn) | -11.2
